The text below walks through data of PubChem BioAssay AID1346428 (National Center for Advancing Translational Sciences (NCATS), 2018).

SMILES strings stand for the structures. About 1,200 (2.5%) of roughly 48,000 compounds were called active. Another 2% or so got no clear call; they are omitted.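 Rule for the calls: active = activation of at least 60% and not above a set upper limit (about 1 call in 100 departs from these limits); inconclusive = activation of 40% to 60%, or above that upper limit; inactive = activation under 40%.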 Some of the results follow.

The assay has as its target Probable G-protein coupled receptor 32 (Homo sapiens) (UniProt O75388). The assay is described as follows: qHTS for Agonists of Human Resolvin D1 Receptor DRV1. The note with it: CHO-K1 GPR32 beta-arrestin PathHunter luminescence, 90 min; at 76.9 µM; stronger effect = higher value; zero percent set by DMSO-only wells. The method, boiled down: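 Using DMSO wells as EC0, agonist-induced signal was taken as chemiluminescence from beta-Gal reconstituted upon beta-arrestin recruitment to GPR32 in CHO-K1 cells after 90 min compound treatment.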
Sequence of UniProt O75388 (O75388 whole entry, looked up): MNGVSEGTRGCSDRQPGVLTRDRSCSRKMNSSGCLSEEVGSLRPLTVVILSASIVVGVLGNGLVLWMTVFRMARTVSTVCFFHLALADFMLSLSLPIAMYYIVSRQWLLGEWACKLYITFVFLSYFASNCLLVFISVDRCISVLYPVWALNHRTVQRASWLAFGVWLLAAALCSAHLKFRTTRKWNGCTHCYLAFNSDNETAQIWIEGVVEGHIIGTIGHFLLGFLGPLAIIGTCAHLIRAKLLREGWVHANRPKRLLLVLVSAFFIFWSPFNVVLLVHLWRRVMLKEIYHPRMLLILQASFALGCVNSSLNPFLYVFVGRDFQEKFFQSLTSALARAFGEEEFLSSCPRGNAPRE
As to `CCCn1cc(S(=O)(=O)c2cccc(Cl)c2)c(=O)c2cc(F)c(N3CCOCC3)cc21`, the activation is inactive: -17.5%. The same measure for `CCN(CC)C(=O)CSc1nnc2ccc3ccccc3n12`: inactive: 7.35%; for `CCc1ccccc1NC(=O)CN1C(=O)CCn2nc(-c3cccn3C)cc21`: inactive: -8.99%. Regarding `Cc1nn(-c2ccc(N3CCCCC3)nn2)c(C)c1CCC(=O)NCc1ccc(F)cc1`, the activation is inactive: -10.7%. For `CCN(Cc1nc(-c2cccc(C)c2)no1)S(=O)(=O)c1ccc(C)cc1` the value was inactive: -4.2%; for `O=C(COc1ccccc1)Nc1sc2c(c1C(=O)Nc1ccccc1Cl)CCCCC2`, inactive: 13.8%. Regarding `OC[C@H]1O[C@@H](n2cnc3cncnc32)[C@H](O)[C@@H]1O`, the activation is inactive: 9.52%. For `COC(=O)c1cc(NC(=O)Nc2ccc3snnc3c2)cc(C(=O)OC)c1` the value was inactive: -8.86%; for `Cc1ccc(C)c(N2C(=O)N(Cc3c(F)cccc3Cl)c3ccccc3S2(=O)=O)c1`, inactive: -4.37%. As for `COc1ccc(N(CC(=O)Nc2ccc(C)c(C)c2)S(=O)(=O)c2ccc(C)cc2)cc1OC`, the activation was inactive: -16%. The same measure for `Cc1cccc(C)c1NC(=O)CN1C(=O)CCSc2ccc(S(=O)(=O)N3CCCC3)cc21`: inactive: -11.7%; for `Cc1ccccc1-c1noc(-c2ccc(N3CCN(c4ccccc4)CC3)c([N+](=O)[O-])c2)n1`: inactive: 4.45%; for `CC(=O)OCc1cc(=O)n2nc(C3CCCCC3)sc2n1`: inactive: 14.8%. For `COc1ccc(S(=O)(=O)n2nc(C)c(S(=O)(=O)N3CCCCC3)c2C)cc1` the value was inactive: 11%. For `Cc1c(Cl)cccc1-n1ncc(C(=O)N2CCN(C)CC2)c1C1CCN(C(=O)OC(C)(C)C)CC1` the value was inactive: 26.6%.

Consider `Cc1ccc(NC(=O)C(=O)NCC(c2cccnc2)N2CCOCC2)cc1` (centres undefined), for which the activation was inactive: 9.72%. For `CC1CCN(C(=O)c2ccc3c(c2)N(Cc2ccccc2F)C(=O)c2ccccc2S3(=O)=O)CC1` the value was inactive: -10.6%. The same measure for `C=C(C)Cn1c(SCC(=O)Nc2ccccc2C)nc2sc3c(c2c1=O)CCCC3`: inactive: 0.0224%; for `CCc1cccc2c(CCO)c[nH]c12`: inactive: 25.1%; for `COc1ccc(CNC(=O)Cn2nc(C)n3cccc3c2=O)cc1`: inactive: -16.9%. The same measure for `COc1ccc(-c2nc(SCC(=O)NC3CCCC3)c(-c3ccc(OC)cc3)[nH]2)cc1`: inactive: -30.8%.

Take `COc1ccccc1N1CCN(C(=O)c2cc3c(=O)n(C)c4ccccc4c3s2)CC1`: the activation is inactive: 10.1%. For `COc1ccccc1-c1noc(-c2ccc(N3CCOCC3)c([N+](=O)[O-])c2)n1` the value was inactive: -29.6%.

Consider `COCCCN(Cc1ccco1)C(=O)c1cc2c(s1)-c1ccccc1OC2`, for which the activation is inactive: -5.79%. The same measure for `CC(=O)c1ccc(N2CCN(c3ncnc4c3c(-c3ccccc3)cn4-c3ccc(C)c(Cl)c3)CC2)cc1`: inactive: -2.26%. The same measure for `CC(C)Cn1c(=O)c2ccccc2n2c(CCC(=O)N3CCN(c4cccc(Cl)c4)CC3)nnc12`: inactive: -46.4%; for `COc1ccc(NC(=O)Cn2c(=O)n(-c3ccc(C)cc3)c(=O)c3c2c2cc(C)ccc2n3C)cc1`: inactive: -5.32%; for `Cc1nn(C)c(C)c1S(=O)(=O)N(CC(=O)Nc1ccc(F)cc1F)c1ccc(C(C)C)cc1`: inactive: -26.2%. For `Cc1ccc(Cc2c(C)nc3nc(SCC(=O)NCCC(C)C)nn3c2C)cc1` the value was inactive: 5.33%; for `Cc1ccc(CN2C(=O)SC(Nc3ccc(Cl)cc3)C2=O)cc1` (centres undefined), active: 61.5%. With `O=C(Nc1onc2c1CCCC2)c1ccccc1`, the activation is inactive: 24.2%.

As to `COc1cccc(CNC(=O)C(=O)NCC(c2ccco2)S(=O)(=O)c2ccccc2)c1` (centres undefined), the activation was inactive: -13.3%. Regarding `O=C(CN1C(=O)CCn2nc(-c3ccccc3)cc21)NCc1ccccc1`, the activation is inactive: -12%. As for `COc1ccccc1CNC(=O)c1cnc2sc(N3CCCCC3)nn2c1=O`, the activation is inactive: -1.24%. For `COc1cccc(C2C(C(=O)Nc3ccccc3OC)=C(C)Nc3nc(-c4ccco4)nn32)c1` (centres undefined) the value was inactive: -12.8%.

As to `CCCOc1cccc(C2c3c(oc4ccc(F)cc4c3=O)C(=O)N2CCc2ccc(OC)cc2)c1` (centres undefined), the activation is inactive: 8.97%. On to `COc1ccc(-n2nc(C(=O)NCCc3ccc(OC)c(OC)c3)c3c4ccccc4n(C)c3c2=O)cc1`, for which the activation is inactive: -16.1%. With `CCC(Sc1nnc2c3ccccc3n(CC)c2n1)C(=O)Nc1ccc(NC(C)=O)cc1` (centres undefined), the activation was inactive: -24.4%. In the case of `Cc1ccccc1-c1nc(CS(=O)(=O)CC(=O)NCCCc2ccccc2)c(C)o1`, the activation was active: 79.9%. For `CCC(C(=O)Nc1cc(C(F)(F)F)ccc1Cl)n1nc(C)c2sc3ccccc3c2c1=O` (centres undefined) the value was inactive: -13.5%; for `COc1ccccc1CNC(=O)Cn1nc(C)n2cccc2c1=O`, inactive: -12.2%.

As to `COc1ccc(C(=O)NCC(c2ccc(Cl)cc2)N2CCCCC2)cc1` (centres undefined), the activation was inactive: -29.1%.

On to `COc1cccc(CNC(=O)c2sc3ncccc3c2-n2c(C)ccc2C)c1OC`, for which the activation was inactive: -3.13%. For `COc1ccc(-c2noc(CSc3nc4ccc(C)cc4[nH]3)n2)cc1`, the activation is inactive: 23.5%. For the compound `O=C(Cn1nc(Cc2cccnc2)c2ccccc2c1=O)Nc1ccc(F)c(Cl)c1`, the activation was inactive: -25.3%. For `O=C(Cn1cnc2onc(-c3ccc(F)cc3)c2c1=O)N1CCN(c2ccc(F)cc2)CC1` the value was inactive: 19.2%; for `CCOc1ccc(-c2nnc(SCC(=O)Nc3ccc(C)cc3C)o2)cc1`, inactive: 3.98%; for `COC(=O)c1ccc(NC(=O)n2ncc3c(C)cccc32)cc1`, inactive: 13.1%. For the compound `CCOC(=O)c1[nH]c2c(c1Cc1ccccc1C)C(=O)CC(c1ccccc1)C2` (centres undefined), the activation is inactive: -11.2%. For `COc1ccc(-c2cn3c(n2)sc2cc(C(=O)Nc4ccc(C)c(Cl)c4)ccc23)cc1` the value was inactive: -5.98%; for `CCc1ccc(NC(=O)c2cnn(-c3c(C)cccc3C)c2C2CCN(C(=O)OC(C)(C)C)CC2)cc1`, inactive: -14%; for `Cc1cc(=O)[nH]c2nnc(SCc3ccccc3F)n12`, inactive: 5.57%. The same measure for `CC1(C)N=C(SCc2ccc(Cl)cc2)c2ccccc2N1`: inactive: 0.917%. For `O=C(NCCc1ccccc1)C(=O)NCC(c1cccs1)S(=O)(=O)c1cccs1` (centres undefined) the value was inactive: -2.06%; for `Cc1c(C(=O)N2CCCCCC2)c(S(=O)(=O)Nc2cccc(C#N)c2)c(C)n1C`, inactive: 0.64%. With `CCOC(=O)c1c(C)[nH]c(C)c1S(=O)(=O)N1CCC(C(=O)Nc2ccccc2CC)CC1`, the activation was inactive: 40.1%.

As to `Cc1ccc(S(=O)(=O)N2CCN(Cc3cc(=O)n4nc(-c5ccccc5Cl)sc4n3)CC2)cc1`, the activation was inactive: 12.1%. For `Cn1c(=O)cc(SCC(=O)NCc2ccc(F)cc2)c2cc(Cl)ccc21` the value was inactive: -4.26%; for `COc1ccc(NC(=O)N2CCCn3nc(C)cc32)cc1OC`, inactive: -5%. As for `CCc1ccc(-n2nc(CO)c(C(=O)NCc3ccccc3Cl)n2)cc1`, the activation was inactive: -11.4%.

Turning to `Cn1c(=O)c(=O)n(C)c2cc(NS(=O)(=O)c3ccc(Br)cc3)c(Cl)cc21`, the activation was inactive: -14.7%. The same measure for `CCCCNC(=O)CSc1nc2cc3c(cc2c(=O)n1Cc1ccc(C(=O)NCCc2ccc(OC)c(OC)c2)cc1)OCO3`: inactive: -16.4%.

Turning to `CCn1c(C(=O)NCc2ccccc2Cl)cc2sc(Cl)cc21`, the activation was inactive: -14.5%. The same measure for `COc1ccc(Cc2nc3ccccc3n2Cc2ccccc2C)cc1`: inactive: -36.8%; for `O=C(NCc1cccc(Cl)c1)c1ccc(NC(=O)N2CCSc3ccccc32)cc1`: inactive: -23.5%. On to `COc1ccc(-c2cc3ccc(O)c(CN4CCCC(C)C4)c3oc2=O)cc1OC` (centres undefined), for which the activation was inactive: -0.0448%. For `CC(Oc1ccccc1)C(=O)Nc1ccc(C(=O)OCc2cc(=O)n3nc(C4CC4)sc3n2)cc1` (centres undefined) the value was inactive: -12.2%; for `O=C(CCC(=O)N1Cc2ccccc2Oc2ncccc21)NCc1cccc(Cl)c1`, inactive: -7.45%.

On to `Cc1cccc(-c2nc3c4ccccc4nc(N4CCN(c5cccc(Cl)c5)CC4)n3n2)c1`, for which the activation was inactive: 14.7%. Regarding `Cc1cccc(NC(=O)CSc2nc(-c3cccs3)nc3cc(=O)[nH]n23)c1`, the activation is inactive: -21.6%. For `O=C(CSc1nc2ccccc2nc1Cc1ccccc1)N1CCc2ccccc21` the value was inactive: 0.83%; for `NC(=O)NC(=O)Cc1ccccc1`, inactive: -9.92%; for `CCc1ccccc1NC(=O)Cn1c(=O)n(CCc2ccccc2)c(=O)c2sc3ccccc3c21`, inactive: 0.362%. For `COc1ccc(-c2c3c(nc4sc(C(=O)Nc5cccc(OC)c5)c(N)c24)CC(C)(C)CC3=O)cc1` the value was inactive: -11.3%. For `Cc1cc(C)n2nc(CNS(=O)(=O)c3cccc(Cl)c3)nc2n1` the value was inactive: -3.12%; for `Cc1cc(C(=O)N2CCN(c3ccccc3F)CC2)c2c(C)nn(-c3ccccc3)c2n1`, inactive: -19.6%.

Turning to `COc1ccc(CCNC(=O)c2ccc(Cn3c(=O)c4cccn4c4cccnc43)cc2)cc1OC`, the activation is inactive: -5.79%. For `Cc1cc(C)c2oc(-c3cccc(NC(=O)c4cccc(F)c4)c3C)nc2c1` the value was inactive: -6.28%; for `CCCCN(C)C(=O)CSc1c2c(nc3ccc(Cl)cc13)CCCC2`, inactive: -16.4%. The same measure for `CCC(C)NC(=O)c1ccc(CNS(=O)(=O)c2ccc3c(c2)C(C)(C)C(=O)N3C)cc1` (centres undefined): inactive: -7.99%; for `Cc1cccc(Cn2c(=O)n(-c3cc(C)cc(C)c3)c(=O)c3oc4ccccc4c32)c1`: inactive: -15.5%; for `CCc1nn(CCCC(=O)NCc2ccccc2OC)c(=O)c2cc3occc3n12`: inactive: -18.9%. The same measure for `CCc1ccc(S(=O)(=O)Nc2ccc3c(c2)sc(=O)n3C)cc1`: inactive: -0.442%; for `Cc1ccc(Cl)cc1NC(=O)CN1C=NS(=O)(=O)c2ccccc21`: inactive: 1.85%.
